The source of these data is PMC10924033.

Amino acid sequences for entries named in this document (tags omitted).
UniProt Q66HA1: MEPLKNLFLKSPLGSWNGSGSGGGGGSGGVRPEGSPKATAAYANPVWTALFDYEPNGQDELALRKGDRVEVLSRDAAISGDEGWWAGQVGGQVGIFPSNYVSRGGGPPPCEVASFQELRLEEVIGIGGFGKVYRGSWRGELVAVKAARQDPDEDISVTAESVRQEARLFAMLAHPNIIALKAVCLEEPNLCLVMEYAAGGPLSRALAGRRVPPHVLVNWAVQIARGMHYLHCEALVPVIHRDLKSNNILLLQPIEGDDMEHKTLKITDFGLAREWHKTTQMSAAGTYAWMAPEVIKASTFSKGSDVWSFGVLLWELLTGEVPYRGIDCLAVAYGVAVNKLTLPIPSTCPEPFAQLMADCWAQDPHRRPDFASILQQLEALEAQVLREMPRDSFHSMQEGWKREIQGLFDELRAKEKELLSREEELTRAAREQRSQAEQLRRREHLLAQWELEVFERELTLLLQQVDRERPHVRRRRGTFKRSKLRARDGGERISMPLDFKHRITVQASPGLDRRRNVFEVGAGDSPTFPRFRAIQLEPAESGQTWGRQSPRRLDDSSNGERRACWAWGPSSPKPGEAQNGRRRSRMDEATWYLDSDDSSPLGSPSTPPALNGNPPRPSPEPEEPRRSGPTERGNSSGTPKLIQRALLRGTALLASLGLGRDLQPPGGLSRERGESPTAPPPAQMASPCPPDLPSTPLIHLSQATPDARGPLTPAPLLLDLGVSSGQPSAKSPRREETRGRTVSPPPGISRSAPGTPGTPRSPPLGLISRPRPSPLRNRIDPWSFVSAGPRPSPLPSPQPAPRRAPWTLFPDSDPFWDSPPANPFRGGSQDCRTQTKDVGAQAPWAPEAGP
UniProt Q80XI6: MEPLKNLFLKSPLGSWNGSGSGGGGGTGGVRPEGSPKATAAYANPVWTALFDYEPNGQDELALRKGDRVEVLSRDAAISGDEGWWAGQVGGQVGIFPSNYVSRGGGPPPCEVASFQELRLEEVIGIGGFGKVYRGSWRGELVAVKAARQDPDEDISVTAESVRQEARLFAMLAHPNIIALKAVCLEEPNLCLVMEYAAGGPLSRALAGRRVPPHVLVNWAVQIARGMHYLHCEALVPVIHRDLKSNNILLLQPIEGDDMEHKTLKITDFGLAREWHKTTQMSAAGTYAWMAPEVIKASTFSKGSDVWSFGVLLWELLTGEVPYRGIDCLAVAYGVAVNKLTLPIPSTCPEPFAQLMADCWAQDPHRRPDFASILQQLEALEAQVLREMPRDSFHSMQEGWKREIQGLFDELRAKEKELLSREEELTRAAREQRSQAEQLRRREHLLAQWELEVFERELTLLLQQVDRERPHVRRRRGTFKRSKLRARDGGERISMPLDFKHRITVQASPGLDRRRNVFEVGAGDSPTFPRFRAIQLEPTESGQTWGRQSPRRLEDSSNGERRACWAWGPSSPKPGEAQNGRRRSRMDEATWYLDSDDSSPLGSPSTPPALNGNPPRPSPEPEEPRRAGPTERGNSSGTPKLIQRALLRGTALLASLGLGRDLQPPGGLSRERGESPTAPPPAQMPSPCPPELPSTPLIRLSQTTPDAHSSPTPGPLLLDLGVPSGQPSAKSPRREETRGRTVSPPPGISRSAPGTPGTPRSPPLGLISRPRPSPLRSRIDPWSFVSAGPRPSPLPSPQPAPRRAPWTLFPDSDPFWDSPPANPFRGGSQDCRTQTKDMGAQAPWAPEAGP

Test [1] deals with T1, PIAS3, endogenous, mouse (mouse (endogenous in cerebral hemispheres)) (UniProt O54714).
T1 sequence: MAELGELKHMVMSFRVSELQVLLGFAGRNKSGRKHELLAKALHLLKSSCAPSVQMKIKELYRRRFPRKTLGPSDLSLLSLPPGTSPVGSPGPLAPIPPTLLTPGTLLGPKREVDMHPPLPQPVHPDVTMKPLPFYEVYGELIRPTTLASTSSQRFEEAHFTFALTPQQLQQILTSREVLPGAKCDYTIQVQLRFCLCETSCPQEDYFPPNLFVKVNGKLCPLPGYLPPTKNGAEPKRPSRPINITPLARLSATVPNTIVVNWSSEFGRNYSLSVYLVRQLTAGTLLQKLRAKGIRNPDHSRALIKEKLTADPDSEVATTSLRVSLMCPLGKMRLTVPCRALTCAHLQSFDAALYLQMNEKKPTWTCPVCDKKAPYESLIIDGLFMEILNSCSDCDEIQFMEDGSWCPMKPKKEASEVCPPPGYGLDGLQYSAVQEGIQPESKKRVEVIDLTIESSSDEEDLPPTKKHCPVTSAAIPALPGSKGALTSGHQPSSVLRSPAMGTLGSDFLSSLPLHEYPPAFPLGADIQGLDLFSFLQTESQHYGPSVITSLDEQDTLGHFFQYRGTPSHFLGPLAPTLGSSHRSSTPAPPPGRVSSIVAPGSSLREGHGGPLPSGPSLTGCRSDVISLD
Kind of test: co-IP; homogenates of mouse cerebral hemispheres, ipsilateral (ischemic) and contralateral, after MCAO/R; immunoblot. On the technique in general: In western blotting, separated proteins are transferred to a membrane and probed.

In test [2] the target is T2, PIAS3, SUMO ligase, endogenous, rat (rat (endogenous in primary cortical neurons and hippocampal CA1)) (UniProt O70260).
T2 sequence: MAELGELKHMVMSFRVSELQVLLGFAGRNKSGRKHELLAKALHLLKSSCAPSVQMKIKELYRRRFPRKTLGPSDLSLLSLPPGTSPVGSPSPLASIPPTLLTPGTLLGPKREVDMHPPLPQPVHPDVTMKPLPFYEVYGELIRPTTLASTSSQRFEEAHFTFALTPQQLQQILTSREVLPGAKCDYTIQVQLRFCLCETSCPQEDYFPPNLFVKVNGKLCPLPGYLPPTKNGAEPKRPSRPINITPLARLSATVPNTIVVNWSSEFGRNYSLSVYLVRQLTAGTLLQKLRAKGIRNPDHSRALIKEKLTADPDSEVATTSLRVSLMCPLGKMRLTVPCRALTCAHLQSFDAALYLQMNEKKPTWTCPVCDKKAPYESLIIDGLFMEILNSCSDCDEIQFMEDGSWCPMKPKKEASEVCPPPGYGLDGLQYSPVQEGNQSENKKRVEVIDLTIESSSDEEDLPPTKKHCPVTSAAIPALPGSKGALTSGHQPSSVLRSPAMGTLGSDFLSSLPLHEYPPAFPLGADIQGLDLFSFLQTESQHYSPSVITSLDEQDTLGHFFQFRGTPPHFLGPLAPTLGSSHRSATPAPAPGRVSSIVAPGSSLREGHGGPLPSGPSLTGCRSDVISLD
The experiment in a line: co-IP; lysates of rat primary cortical neurons infected with Lenti-PINIT or Lenti-NC at DIV 9, OGD/R at DIV 13; immunoblot.

Test [3] addresses T2, PIAS3, SUMO ligase, endogenous, rat (rat (endogenous in primary cortical neurons and hippocampal CA1)). The experiment in a line: co-IP; homogenates of rat hippocampal CA1 five weeks after injection of AAV-PINIT or AAV-NC, 15 min ischemia and six hours of reperfusion; immunoblot.
Test [4] shares this target. Kind of test: co-IP; lysates of rat primary cortical neurons, normoxia and time course of reoxygenation after 2 h OGD; IP buffer with 150 mM NaCl, 1% Triton X-100, 0.5% NP-40, overnight at 4 °C, Protein A + G magnetic beads; immunoblot.
Test [5] has the same target. Kind of test: co-IP; homogenates of rat hippocampal CA1, sham and time course of reperfusion after 15 min global ischemia (I/R); IP buffer as in the methods; immunoblot.
The target of test [6] is T3, PIAS3 in the HEK293T competition experiment with 133–320 (Fig. 2I) (UniProt O70260).
T3 sequence: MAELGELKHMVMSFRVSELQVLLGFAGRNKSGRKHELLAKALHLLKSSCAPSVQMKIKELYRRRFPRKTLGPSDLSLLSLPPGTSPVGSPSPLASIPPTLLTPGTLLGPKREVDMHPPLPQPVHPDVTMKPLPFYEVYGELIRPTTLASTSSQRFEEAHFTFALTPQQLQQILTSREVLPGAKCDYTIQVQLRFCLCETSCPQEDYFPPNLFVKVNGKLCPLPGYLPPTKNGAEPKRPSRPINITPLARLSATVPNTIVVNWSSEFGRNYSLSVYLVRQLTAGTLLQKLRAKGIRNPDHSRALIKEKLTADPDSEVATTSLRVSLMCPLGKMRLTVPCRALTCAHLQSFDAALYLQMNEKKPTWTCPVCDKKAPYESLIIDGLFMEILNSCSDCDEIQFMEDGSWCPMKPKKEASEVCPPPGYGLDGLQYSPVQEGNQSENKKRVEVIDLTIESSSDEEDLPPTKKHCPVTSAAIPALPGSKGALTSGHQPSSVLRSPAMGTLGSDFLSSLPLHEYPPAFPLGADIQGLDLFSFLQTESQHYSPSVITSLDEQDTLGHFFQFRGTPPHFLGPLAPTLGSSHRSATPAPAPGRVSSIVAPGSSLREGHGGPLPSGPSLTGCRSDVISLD
Kind of test: co-IP; HEK293T cells, MLK3-PIAS3 interaction with increasing overexpression of 133–320 (dose-dependent).

In test [7] the target is T4, Myc-tagged rat PIAS3 truncated mutant AAs 1–500 (rat) (UniProt O70260).
T4 sequence: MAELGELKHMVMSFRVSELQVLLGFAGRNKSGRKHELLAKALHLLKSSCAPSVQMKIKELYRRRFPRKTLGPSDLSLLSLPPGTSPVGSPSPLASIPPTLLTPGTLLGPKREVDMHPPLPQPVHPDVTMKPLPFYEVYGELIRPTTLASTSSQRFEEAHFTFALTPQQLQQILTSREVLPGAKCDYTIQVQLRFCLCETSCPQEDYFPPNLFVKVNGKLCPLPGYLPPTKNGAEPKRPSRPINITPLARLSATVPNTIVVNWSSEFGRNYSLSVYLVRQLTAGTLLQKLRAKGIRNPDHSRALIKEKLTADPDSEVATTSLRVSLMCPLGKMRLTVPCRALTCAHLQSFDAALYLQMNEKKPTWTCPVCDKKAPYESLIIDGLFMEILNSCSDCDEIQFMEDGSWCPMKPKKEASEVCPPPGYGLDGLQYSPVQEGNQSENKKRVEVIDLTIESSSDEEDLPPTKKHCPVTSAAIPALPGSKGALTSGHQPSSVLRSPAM
Kind of test: co-IP; HEK293T cells coexpressing MLK3 with Myc-PIAS3 WT or its truncated mutants (1–500, 1–320, 1–132, 133–320); immunoblot.

The target of test [8] is T5, Myc-tagged full-length rat PIAS3 (Myc-PIAS3 WT) (rat) (UniProt O70260).
T5 sequence: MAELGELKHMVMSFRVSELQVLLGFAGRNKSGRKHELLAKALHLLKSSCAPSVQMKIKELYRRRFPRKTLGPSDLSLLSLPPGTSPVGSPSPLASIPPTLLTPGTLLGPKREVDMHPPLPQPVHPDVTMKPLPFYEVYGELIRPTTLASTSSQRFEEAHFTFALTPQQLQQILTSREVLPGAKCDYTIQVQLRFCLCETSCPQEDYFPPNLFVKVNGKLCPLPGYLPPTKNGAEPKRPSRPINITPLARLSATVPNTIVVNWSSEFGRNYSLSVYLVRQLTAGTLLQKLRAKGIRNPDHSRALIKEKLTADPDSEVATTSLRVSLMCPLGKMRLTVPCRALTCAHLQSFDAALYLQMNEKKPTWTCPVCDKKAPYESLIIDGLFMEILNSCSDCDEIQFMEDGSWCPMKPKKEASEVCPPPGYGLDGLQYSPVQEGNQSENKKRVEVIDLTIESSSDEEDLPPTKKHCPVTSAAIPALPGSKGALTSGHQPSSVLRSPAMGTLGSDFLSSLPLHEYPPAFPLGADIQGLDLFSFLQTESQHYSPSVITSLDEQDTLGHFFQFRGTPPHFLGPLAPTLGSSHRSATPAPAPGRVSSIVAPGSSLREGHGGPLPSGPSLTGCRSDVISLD
Described as above.

Test [9] has as its target T6, PINIT domain of PIAS3, AAs 133–320, Myc- and His-tagged (133–320-Myc-His) (rat) (UniProt O70260).
T6 sequence: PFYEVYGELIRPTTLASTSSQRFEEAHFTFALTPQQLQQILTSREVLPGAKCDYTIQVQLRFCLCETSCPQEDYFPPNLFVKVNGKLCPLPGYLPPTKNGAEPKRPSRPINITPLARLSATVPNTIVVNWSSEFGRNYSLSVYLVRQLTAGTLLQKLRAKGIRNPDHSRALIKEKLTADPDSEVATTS
Described as above.

Test [10] deals with T7, Myc-tagged rat PIAS3 truncated mutant AAs 1–132 (rat) (UniProt O70260).
T7 sequence: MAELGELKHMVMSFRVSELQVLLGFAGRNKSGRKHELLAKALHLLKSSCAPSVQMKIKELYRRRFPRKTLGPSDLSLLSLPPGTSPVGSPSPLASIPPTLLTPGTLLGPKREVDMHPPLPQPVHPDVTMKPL
The test is described as above.

Test [11] has as its target T8, Myc-tagged rat PIAS3 truncated mutant AAs 1–320 (rat) (UniProt O70260).
T8 sequence: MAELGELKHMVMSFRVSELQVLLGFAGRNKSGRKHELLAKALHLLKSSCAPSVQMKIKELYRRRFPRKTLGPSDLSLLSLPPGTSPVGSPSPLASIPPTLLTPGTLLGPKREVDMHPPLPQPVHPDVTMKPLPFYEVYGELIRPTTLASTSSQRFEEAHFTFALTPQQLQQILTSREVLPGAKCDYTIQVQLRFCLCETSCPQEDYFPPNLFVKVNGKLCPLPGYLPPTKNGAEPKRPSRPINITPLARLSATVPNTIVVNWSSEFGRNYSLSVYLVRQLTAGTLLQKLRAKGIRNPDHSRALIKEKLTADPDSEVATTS
The test is described as above.

Test [12] has as its target T6, PINIT domain of PIAS3, AAs 133–320, Myc- and His-tagged (133–320-Myc-His) (rat). Kind of test: pull-down; His pulldown: His-tagged PIAS3 bait from HEK293T lysate loaded on Ni resin, mixed with cell lysate overexpressing MLK3 at 4 °C for 3 h; washed with 50 mM NaH2PO4, 300 mM NaCl, 60 mM imidazole, pH 8.0; only the target purified.
Test [13] deals with Mixed lineage kinase 3 (MLK3), endogenous, rat (rat (endogenous in primary cortical neurons and hippocampal CA1)) (UniProt Q66HA1). The experiment in a line: co-IP; lysates of rat primary cortical neurons infected with Lenti-PINIT or Lenti-NC at DIV 9, OGD/R at DIV 13; immunoblot.
For test [14] the target is unchanged. Kind of test: co-IP; homogenates of rat hippocampal CA1 five weeks after injection of AAV-PINIT or AAV-NC, 15 min ischemia and six hours of reperfusion; immunoblot.

No constants are given. Whether binding was seen depends on the method and setting. Binding seen in cells or lysates may run through a third protein. Some binding calls cover weakened binding; strength is not graded here. For some assays here: Sequences can lack the tags named with a protein.

Regarding “Mixed lineage kinase 3 (MLK3), endogenous, mouse (from UniProt Q80XI6 1-850)”, the binding result in test [1] is reported as “binds”.

With “Mixed lineage kinase 3 (MLK3), endogenous, rat (from UniProt Q66HA1 1-850)”, the binding result in test [2], in [3], in test [4] and in [5] was “binds” each time.

Consider “Myc-tagged MLK3 (wild type), overexpressed in HEK293T cells (from UniProt Q66HA1 1-850)”, for which the binding result is “binds” in [6]; “binds” in test [7]; “binds” in [8]; “binds” in [9]; “no binding” in [10]; “binds” in [11]. The binding entry in [12] is given as “binds”.

B1: PINIT domain of PIAS3 expressed from lentivirus (Lenti-PINIT) (domain or fragment, UniProt O70260 133-320)
chain: PFYEVYGELIRPTTLASTSSQRFEEAHFTFALTPQQLQQILTSREVLPGAKCDYTIQVQLRFCLCETSCPQEDYFPPNLFVKVNGKLCPLPGYLPPTKNGAEPKRPSRPINITPLARLSATVPNTIVVNWSSEFGRNYSLSVYLVRQLTAGTLLQKLRAKGIRNPDHSRALIKEKLTADPDSEVATTS
Take B1: in test [13], the binding result is “binds”.

B2: PINIT domain of PIAS3 expressed from adeno-associated virus (AAV-PINIT) (domain or fragment, UniProt O70260 133-320)
chain: PFYEVYGELIRPTTLASTSSQRFEEAHFTFALTPQQLQQILTSREVLPGAKCDYTIQVQLRFCLCETSCPQEDYFPPNLFVKVNGKLCPLPGYLPPTKNGAEPKRPSRPINITPLARLSATVPNTIVVNWSSEFGRNYSLSVYLVRQLTAGTLLQKLRAKGIRNPDHSRALIKEKLTADPDSEVATTS
For B2, the binding result in test [14] is “binds”.
